Measured values reported in PubChem BioAssay AID488969 (Vanderbilt High Throughput Screening Facility, 2010).
In all, about 110,000 compounds were measured (“z-score”: median about -0.1, highest 2% from about 2 on). The list shows a part of the results.

biological target: Metabotropic glutamate receptor 8 (Rattus norvegicus) (UniProt P70579); assay: mGluR8 Gi/Go-coupled signaling modulation – cell-based, rat, thallium flux, HTS, primary screen (AID 488969); conditions: HEK293 rat mGluR8, GIRK (G protein-gated inwardly rectifying potassium channel) thallium flux, FluoZin2; at 10 µM; stronger effect = higher value; submaximal glutamate (EC20) added with thallium
Chain of UniProt P70579 (P70579 whole entry, looked up): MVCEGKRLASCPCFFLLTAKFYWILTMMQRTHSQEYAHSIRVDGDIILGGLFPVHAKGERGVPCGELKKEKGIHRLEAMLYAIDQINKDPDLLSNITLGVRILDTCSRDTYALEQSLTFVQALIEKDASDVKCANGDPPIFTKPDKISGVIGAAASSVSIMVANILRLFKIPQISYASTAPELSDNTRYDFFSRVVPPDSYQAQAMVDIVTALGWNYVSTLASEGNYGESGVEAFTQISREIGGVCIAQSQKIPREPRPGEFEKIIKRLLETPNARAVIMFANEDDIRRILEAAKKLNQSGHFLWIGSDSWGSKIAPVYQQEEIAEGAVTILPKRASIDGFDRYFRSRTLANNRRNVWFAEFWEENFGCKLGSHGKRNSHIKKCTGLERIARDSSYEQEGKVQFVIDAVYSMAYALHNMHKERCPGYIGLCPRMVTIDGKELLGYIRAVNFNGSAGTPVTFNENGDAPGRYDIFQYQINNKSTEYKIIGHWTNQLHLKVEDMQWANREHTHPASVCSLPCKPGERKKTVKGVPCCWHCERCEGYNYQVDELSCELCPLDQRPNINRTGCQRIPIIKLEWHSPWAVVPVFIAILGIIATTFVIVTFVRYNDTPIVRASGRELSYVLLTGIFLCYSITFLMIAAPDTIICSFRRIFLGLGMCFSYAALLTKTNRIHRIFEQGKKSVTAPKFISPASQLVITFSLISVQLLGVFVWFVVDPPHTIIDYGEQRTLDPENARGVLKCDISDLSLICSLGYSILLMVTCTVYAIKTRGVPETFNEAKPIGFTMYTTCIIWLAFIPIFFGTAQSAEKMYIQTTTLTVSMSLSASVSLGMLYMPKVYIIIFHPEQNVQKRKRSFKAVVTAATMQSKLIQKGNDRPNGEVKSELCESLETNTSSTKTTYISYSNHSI

Row | Structure (SMILES) | z-score
1 | Cc1ccc(C)c2[nH]c(=O)c(CN(CC3CCCO3)S(=O)(=O)c3ccc4c(c3)OCCO4)cc12 (centres undefined) | -0.106
2 | CC(C)C(C(=O)NC1CCCCC1)N(CC1CCCO1)C(=O)CNS(=O)(=O)c1ccc(F)cc1 (centres undefined) | -0.692
3 | C#CCSc1nnc(-c2ccccc2)c(=O)[nH]1 | -0.655
4 | Cc1ccc(Cn2c(S(=O)(=O)O)nc3ccccc32)cc1 | -0.0368
5 | Cc1cc(C(=O)CN2C(=O)NC3(CCCc4ccccc43)C2=O)c(C)n1Cc1ccccc1 (centres undefined) | 0.254
6 | Cc1ccc(CNS(=O)(=O)c2cn(C)cn2)cc1 | -0.0597
7 | O=S(=O)(NC1CCCCC1NCc1ccco1)c1ccccc1 (centres undefined) | -0.558
8 | CCOCCc1nnc(NC(=O)CSc2ccccc2)s1 | 0.805
9 | COC(=O)/C=C1\N/C(=N\c2nc(C)cc(C)n2)N(c2ccc(C)c(C)c2)C1=O | 0.0494
10 | O=C(OCCN1C(=O)c2ccccc2C1=O)C1CCN(S(=O)(=O)c2cccs2)CC1 | -0.82
11 | Nn1c(SC/C=C/c2ccccc2)nnc1-c1cccnc1 | 0.773
12 | C=CCNS(=O)(=O)c1cccc2cc(C(=O)O)c(O)cc12 | -0.00419
13 | CC1CC2=C(C(=O)O1)C(C)Nc1ccccc1N2 (centres undefined) | -0.08
14 | Cc1c(NC(=O)c2cnn3cccnc23)c(=O)n(-c2ccccc2)n1C | -0.106
15 | Cc1ccccc1-n1cnnc1SCC(=O)N1CCN(c2ccccc2)CC1 | -0.0442
16 | COc1ccc(OC)c(NC(=O)C2CCN(Cc3cnn(-c4ccccc4)c3-n3cccc3)CC2)c1 | -0.109
17 | CCOc1ccc(NC(=O)c2ccccc2NC(=O)CN(C)CC(=O)Nc2ccc(C)cc2)cc1 | -0.391
18 | O=S(=O)(Nc1ccc(N2CCCCC2)cc1)c1cccc2cccnc12 | -0.51
19 | O=C(/C=C/c1ccccc1)c1ccoc1 | 0.277
20 | CC1(C)CC(CC(=O)Nc2ccc([N+](=O)[O-])cc2)C(=O)O1 (centres undefined) | -0.134
21 | CN(C)S(=O)(=O)c1cccc(NC(=O)Cn2cnc3ccccc3c2=O)c1 | 0.0344
22 | CCCCN(C(=O)c1ccc(Cl)cc1)C1CC2CCC(C1)N2C (centres undefined) | -1.81
23 | CCN1C(=O)c2cccc3c(S(=O)(=O)NCCCN4CCOCC4)ccc1c23 | -0.0858

Row | Structure (SMILES) | z-score
24 | Cc1cc(O)c(/C=N/Nc2ccccc2Cl)c(=O)o1 | -0.357
25 | CCOC(=O)c1cc2sc(C)cc2n1CC(=O)N1CCc2ccccc21 | 0.0347
26 | N#Cc1cc(-c2ccccc2)cnc1Sc1ccccc1 | 0.108
27 | Cc1ccc(C(=O)COC(=O)c2cccc(NC(=O)c3ccc([N+](=O)[O-])cc3[N+](=O)[O-])c2)cc1 | 0.41
28 | Fc1ccccc1CSc1nncn1NC/C=C/c1ccccc1 | 0.0136
29 | N#Cc1c(N)n[nH]c1CCCN | 0.49
30 | Cc1cc(/C=N/NC(=O)C(=O)N2CCCC2)c(C)n1-c1cccc(Br)c1 | -0.272
31 | COc1ccc(-c2nnc(SCC(=O)NNC(=O)Cc3ccccc3)n2C)cc1OC | -0.209
32 | COC(=O)c1c(C)nc2ccccc2c1-c1ccccc1 | -0.899
33 | CCOCCCNC(=O)C(c1ccc(Cl)cc1)N1CCC2(CC1)OCCO2 (centres undefined) | 0.279
34 | Cc1ccc(Cn2c(NS(=O)(=O)c3ccccc3)nc3ccccc32)cc1 | -0.112
35 | O=C(NCc1ccc2c(c1)OCO2)c1ccc(-c2ccc(Cl)cc2)o1 | -0.182
36 | C=CCSc1nc2c(cc1C#N)CCC2 | -0.145
37 | CN(c1ccccc1)c1nc(N)c(C#N)c(CC#N)c1C#N | 0.000795
38 | Cn1c(Cn2nnc(-c3ccccc3)n2)nnc1SCc1ccccc1Cl | -1.29
39 | CCS(=O)(=O)N1CCN(Cc2ccc([N+](=O)[O-])cc2)CC1 | -0.173
40 | CC(=O)N(C)c1ccc(NC(=O)c2cnn(C)c2)cc1 | -0.257
41 | O=S(=O)(NCCc1ccncc1)c1ccccc1 | -0.229
42 | CN(C)CCNC(=O)c1ccc(CS(=O)(=O)c2c(Cl)cccc2Cl)o1 | -0.0595
43 | Cc1ccc(Cc2c(C)nc3nc(SCC(=O)NCCN4CCOCC4)nn3c2C)cc1 | 0.396
44 | CC(C(=O)NC(=O)NC1CCCCC1)N1CCN(c2ccccn2)CC1 (centres undefined) | 0.0805
45 | CCOC(=O)/C(C#N)=C/c1ccc(OCC(=O)Nc2ccccc2)c(OC)c1 | 0.0579
46 | CCc1nc(SCC(=O)Nc2cc(C)on2)c2c(=O)n(C)c(=O)n(C)c2n1 | 1.33

Row | Structure (SMILES) | z-score
47 | O=C(C1CCN(S(=O)(=O)c2cccc3cccnc23)CC1)N1CCN(c2ccccn2)CC1 | -0.257
48 | CC(C)C(=O)Nc1ccc(C(=O)N2CCN(C(=O)c3ccco3)CC2)cc1 | 0.196
49 | CCOc1ccccc1NC(=O)C1CCN(S(=O)(=O)c2c(C)nn(C)c2C)CC1 | -0.644
50 | Cc1nn(CCC(=O)NNC(=S)Nc2cccc(Cl)c2)c(C)c1[N+](=O)[O-] | 0.117
51 | COc1ccc(S(=O)(=O)n2ccc(C(C)Oc3ccc(-c4ccccc4)c(F)c3)n2)cc1 (centres undefined) | 0.0679
52 | O=C(CSc1ccc(Cl)cc1)Nc1ccc(N2CCN(C(=O)c3ccc(Cl)cc3)CC2)cc1 | -0.126
53 | Cc1ccc(NC(=O)/C=C/c2cccc(C(F)(F)F)c2)cc1 | -0.0132
54 | COC(=O)c1sccc1NC(=O)c1ccoc1C | -0.194
55 | CC1Cc2cc(/C(O)=C3/C(=O)C(=O)N(CC4CCCO4)C3c3ccco3)ccc2O1 (centres undefined) | -0.183
56 | COc1ccc(NC2c3ccccc3C(=O)N2c2ccccn2)cc1Cl (centres undefined) | -0.839
57 | CC(=O)NS(=O)(=O)c1ccc(NC(=S)NC(=O)C(C)(C)C)cc1 | -0.209
58 | CC(C)CC(=O)Nc1ccc(-c2nc3ccccc3c(=O)o2)cc1 | 0.41
59 | CC1CCN(c2ccccc2NC(=O)c2ccc(F)cc2)CC1 | -0.52
60 | CCC(=O)Nc1nc2ccc(NC(C)=O)cc2s1 | -0.322
61 | COc1cccc(C2CC(c3ccccc3Cl)Nc3ncnn32)c1 (centres undefined) | -0.106
62 | CCOC(=O)c1sc(NC(=O)CSc2nnc(Cc3ccccc3)o2)c(C#N)c1C | -0.503
63 | COc1ccc(-n2c(-c3cccc(OC)c3)nc(=S)c3c2CCCC3)cc1 | -0.329
64 | O=C(COC(=O)c1ccc2[nH]c3c(c2c1)CCCC3)Nc1ccccc1 | 0.042
65 | COCCNC(=S)N/N=C(\C)c1ccc(-n2ccnc2)cc1 | -0.146
66 | N#Cc1ccc(Oc2ccc(/C=N/O)cn2)cc1 | -0.177
67 | CC1(C)C(=O)Nc2ccccc2N1C(=O)CSc1nnc2ccccn12 | 0.281
68 | O=C(CN1CCN(Cc2ccccc2Cl)CC1)N/N=C/C=C/c1ccccc1[N+](=O)[O-] | 0.12
69 | O=S1(=O)N=C(Nc2nc3c(s2)CCCC3)c2ccccc21 | 0.105
